PubChem BioAssay AID1346428 (National Center for Advancing Translational Sciences (NCATS), 2018)
“And” between values parts separate entries of the source, which are not always exact repeats. Identical values can stand only once. The campaign covered roughly 48,000 compounds. About 1,200 (2.5%) were called active. About 2% were inconclusive and are not listed.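 How the source made its calls: active means activation of at least 60% and not above a set upper limit (about 1 call in 100 departs from these limits); inconclusive means activation of 40% to 60%, or above that upper limit; inactive means activation under 40%.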 The list shows a part of the results.

Target: Probable G-protein coupled receptor 32 (Homo sapiens) (UniProt O75388)
Experiment: qHTS for Agonists of Human Resolvin D1 Receptor DRV1; further: 0% is about no effect
Conditions: CHO-K1 GPR32 beta-arrestin PathHunter luminescence, 90 min; at 76.9 µM; active compounds read high; zero percent set by DMSO-only wells
Method in brief: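 PathHunter enzyme-fragment complementation, CHO-K1 GPR32 stable line; 2,500 cells/well, overnight attach; cpd 90 min 37 °C 5% CO2; detection reagent 1 h RT; chemiluminescence. DMSO = EC0.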

Sequence of UniProt O75388 (O75388 whole entry, looked up): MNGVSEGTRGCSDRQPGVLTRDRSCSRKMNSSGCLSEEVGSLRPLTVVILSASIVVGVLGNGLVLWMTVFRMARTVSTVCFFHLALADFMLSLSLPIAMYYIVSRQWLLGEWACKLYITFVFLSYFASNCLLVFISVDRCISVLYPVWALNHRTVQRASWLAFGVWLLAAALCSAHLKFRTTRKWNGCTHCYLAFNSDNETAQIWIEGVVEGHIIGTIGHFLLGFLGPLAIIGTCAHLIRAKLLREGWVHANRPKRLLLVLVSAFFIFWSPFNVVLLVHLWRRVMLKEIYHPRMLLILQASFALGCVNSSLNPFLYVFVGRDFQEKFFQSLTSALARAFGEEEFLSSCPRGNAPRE

activation, inactive:
O=C(Nc1c(C(=O)N2CCN(c3ccc(F)cc3)CC2)oc2ccccc12)c1c(F)cccc1F -4.43%
Cc1nnc(NC(=O)CSc2nc3c([nH]c4ccccc43)c(=O)n2-c2ccccc2)s1 -11.6%
COc1ccc(C2CC(=O)c3cc(-c4nc(-c5cccc([N+](=O)[O-])c5)cs4)c(=O)n(-c4ccc(C)c(C)c4)c3C2)cc1 (centres undefined) 2.25%
CC(C)Oc1ccc(C(=O)Nc2ccc3c(c2)CCCN3C(=O)c2cccs2)cc1 -13.4%
CCC(Sc1nc2ccccc2c2nc(CCn3cncc3C)nn12)C(=O)Nc1cccc(OC)c1 (centres undefined) -16%
O=C(Cn1cc(SCc2ccc(C(F)(F)F)cc2)c2ccccc21)N1CCCCCC1 -35.2%
COc1ccc(Cn2c(CNC(=O)c3ccc(N(C)C)cc3)nc3cccnc32)cc1 -17.3%
CCC1CCCCN1CCCNC(=O)CN1C(=O)c2cccnc2Oc2ccc(Cl)cc21 (centres undefined) 4.6%
Cc1sccc1Br -7%
Fc1ccc(Nc2nc3ccccc3c3nncn23)c(Cl)c1 6.97%
Cc1cc(C)c2nc(N3CCCC(C(=O)NCc4cccc(Br)c4)C3)sc2c1 (centres undefined) -3.04%
COc1ccc(CCNC(=O)c2ccc(Cn3c(=O)c4ccccc4n(Cc4cc(C)ccc4C)c3=O)cc2)cc1OC 11.4%
Cc1ccc2oc(=O)c3cc(C(=O)Nc4ccc(F)cc4F)sc3c2c1 -1.41%
CC(C)CSc1nnc(-c2ccccc2)c(-c2ccccc2)n1 -11.8%
Cc1ccc(NC(=O)c2oc3ccc(S(=O)(=O)N4CCCCCC4)cc3c2C)cc1Cl 1.82%
CCOC(=O)c1ccc(N2CCN(c3ccccc3F)CC2)c(NC(=O)Nc2ccc(Cl)c(Cl)c2)c1 -17%
Cc1ccc(Cl)cc1NC(=O)CN1C(=O)c2cccc3cccc1c23 25.2%
COc1ccc(C)c2sc(N(Cc3cccnc3)C(C)=O)nc12 -14.9%
CCCN1C(=O)c2[nH]nc(-c3ccccc3O)c2C1c1ccc(OCc2ccccc2)c(OCC)c1 (centres undefined) 9.69%
COc1ccc(-c2nc3ccccc3s2)cc1NC(=O)COc1ccccc1C 1.68%
COc1ccccc1OCCn1c(NC(=O)c2ccc(Cl)cc2)nc2ccccc21 -10.8%
CCc1ccc(NC(=O)C2CCC(CNS(=O)(=O)c3ccc4c(c3)CC(C)N4C(C)=O)CC2)cc1 (centres undefined) 19.3%
Cc1ccccc1-c1nc(CS(=O)CC(=O)N2CCN(c3cc(Cl)ccc3C)CC2)c(C)o1 (centres undefined) -4.18%
CCCCC(=O)Nc1cccc(-c2nc3ncccc3o2)c1C 46.8%
CCN(CC)CCCNC(=O)Cn1nc(C)n2c(cc3sccc32)c1=O -2.19%
CCC(=O)N1c2ccccc2CC1C(=O)NCc1cccc(C)c1 (centres undefined) 8.38%
CCCCc1ccc(NC(=O)Cn2nnc3sc4c(c3c2=O)CCC(C)C4)cc1 (centres undefined) -4.03%
COc1ccc(CCNC(=O)Cn2c(=O)n(-c3ccc(C)c(C)c3)c(=O)c3c(C)c(C)sc32)cc1OC -2.4%
COc1ccc(Cn2nnc3c(=O)[nH]c(C4CCCN(C(=O)c5ccc(C)cc5)C4)nc32)cc1 (centres undefined) 16.7%
Cc1ccc(C(=O)c2oc3ccccc3c2NC(=O)Cc2coc3cc(C)ccc23)cc1 1.05%
Clc1cccc(CSc2nncn3c2cc2sccc23)c1 -23%
COc1ccc(OC)c(C(=O)c2c(N)c(-c3nc(-c4ccc(C)c(C)c4)cs3)c3ccccn23)c1 4.51%
Cc1nn(S(=O)(=O)c2ccccc2)c(C)c1S(=O)(=O)N1CCC(C)CC1 -0.342%
COc1ccc(NC(=O)c2ccc3oc(=O)c(S(=O)(=O)c4ccc(C)cc4)cc3c2)cc1OC -0.477%
CCc1ccccc1NC(=O)Cn1ccn(-c2cc(C)cc(C)c2)c(=O)c1=O -13.9%
CCOc1cccc(C2Nc3ccccc3-c3cc(C)nn32)c1O (centres undefined) -3.07%
CCn1c(=NC(=O)c2ccc3c(c2)OCCO3)sc2c(C)ccc(OC)c21 -6.53%
CCOC(=O)C1(C)C=C(Nc2ccc(Br)cc2)C(=O)N1c1ccccc1 (centres undefined) 0.465%
Cc1ccc(NC(=O)CSc2nc(C)c(Cc3ccccc3)c(=O)[nH]2)cc1C 25.5%
CCCCCCCCCCCCCCCCCCNC(=O)OC1CCN(C(=O)OC[C@H](COC(=O)N(Cc2cccc[n+]2CC)C(=O)c2ccccc2OC)OC)CC1 30.3%
COc1ccc(CCNC(=O)c2ccc3c(c2)CCN3S(C)(=O)=O)cc1 -38.9%
CCN(c1ccccc1)C(CNS(=O)(=O)c1ccccc1)c1ccccc1 (centres undefined) -1.24%
COc1ccc2c(CNCc3ccc(C)o3)c(C(=O)O)n(Cc3ccccc3C)c2c1 -6.37%
CCN(C(=O)C(=O)Nc1ccc2nc3n(c(=O)c2c1)CCCCC3)c1ccc(F)cc1 -0.317%
Cc1ccc(OCC(=O)Nc2ccc(OCc3cc(=O)n4cccc(C)c4n3)cc2)cc1C -0.978%
COc1ccc(CCNC(=O)Cc2c(C)c3c(cc(C)c4c(C)coc43)oc2=O)cc1OC -14.6%
COc1ccc(CC(=O)NC2CC(=O)N(c3cccc(F)c3)C2)cc1 (centres undefined) -5.57%
Cc1ccc(-c2nnc(Nc3ccc(Br)cc3)c3ccccc23)cc1S(=O)(=O)N1CCN(C)CC1 -19.2%
Cc1nn(C(C)C(=O)NC2CCCCC2)c(=O)c2c1sc1ccccc12 (centres undefined) -9.03%
O=C(c1ccc2c(c1)N(Cc1ccccc1)C(=O)c1ccccc1S2(=O)=O)N1CCN(c2ccccc2)CC1 -5.22%
COc1ccc(OC)c(C2NC(=O)NC(C)=C2C(=O)Nc2cc(C)cc(C)c2)c1 (centres undefined) -5.27%
Cc1ccc2sc(N(Cc3cccnc3)C(=O)CCOc3ccccc3)nc2c1C -10.9%
COc1cc(C(=O)CC2(O)C(=O)N(Cc3ccccc3Cl)c3ccccc32)cc(OC)c1OC (centres undefined) -18.7%
O=C(O)CCCCCCCC(=O)O 9.88% and 7.09%
Cc1c(C(=O)N(Cc2ccc(N(C)C)cc2)C2CCS(=O)(=O)C2)oc2ccccc12 (centres undefined) -30.3%
Cc1oc2c(c1C(=O)Nc1ccccc1Br)C1=NCCN1C=N2 -7.22%
Cc1c(Cl)cccc1NC(=O)NCc1c(-n2cccc2)sc2c1CCCC2 -8.16%
Cc1ccc(N(Cc2cccs2)C(=O)Nc2cccc(Cl)c2)cc1 -30.7%
Cc1ccc(Cn2c(=O)n(CC3CCC(C(=O)N4CCC(C)CC4)CC3)c(=O)c3sccc32)cc1 (centres undefined) 1.34%
Cc1ccc(CNC(=O)c2c(O)nc3ccccn3c2=O)cc1 12%
C=CC(N)CCC(=O)O (centres undefined) -2.18%
O=C(NCCc1cccs1)c1ccc(Cn2c(SCc3ccccc3)nc3cccnc32)cc1 -10.1%
COc1cccc(CNC(=O)c2sc3nc4n(c(=O)c3c2C)CCC4)c1 -8.66%
CCOC(=O)c1ccccc1NC(=O)c1cc2c(s1)-c1c(C)cccc1OC2 -12%
COc1ccc(N2CC3=C(C2=O)C(c2ccc(O)c(OC)c2)NC(=O)N3C)cc1 (centres undefined) 13.7%
CCOc1ccccc1NC(=O)Cn1cnc2c1c(=O)n(C)c(=O)n2C -18%
CC(C)OCCCNc1sc(S(=O)(=O)c2ccccc2)nc1S(=O)(=O)c1ccc(Cl)cc1 -16.4%
CCOc1ccccc1NC(=O)CSc1nc2c(oc3ccccc32)c(=O)n1C(C)C -8.22%
COCCCNC(=O)c1cc(-c2ccc(OC)cc2)nc2n[nH]c(-c3ccc(Cl)cc3)c12 -26.4%
COc1ccc(CCNC(=O)c2cnc3ccc(C)cn3c2=O)cc1OC -2.13%
Cn1ncc2c(NCc3ccc(Cl)cc3)ncnc21 6.71%
Cc1c(C(=O)Nc2ccc(F)cc2F)oc2ccc3c(c12)C(=O)CC(C)(C)O3 44.3%
CN(C)c1ccc(CNC(=O)CN2C(=O)c3cccnc3Oc3ccc(Cl)cc32)cc1 -2.13%
Cc1oc2ccc(O)c(CN3CCN(Cc4ccccc4)CC3)c2c1C(=O)Nc1ccccc1 -0.237%
Cc1nn(CC(=O)NCc2cccc(Br)c2)c(=O)c2c1sc1ccccc12 -13%
O=S(=O)(NCCc1nnc2ccc(SCc3ccc(C(F)(F)F)cc3)nn12)c1ccccc1 -15.7%
Cc1cc(C)c(S(=O)(=O)NCCc2cc3cc(C)c(C)cc3[nH]c2=O)c(C)c1 -6.74%
Cc1ccc(Nc2nc3ccc(C)cc3nc2-n2nc(C)cc2C)c(C)c1 6.24%
COc1cccc(C(c2sc3nc(-c4ccco4)nn3c2O)N2CCOCC2)c1 (centres undefined) 4.33%
COc1ccc(N(CC(=O)NCc2ccccc2Cl)S(=O)(=O)c2c(C)[nH]c(=O)[nH]c2=O)cc1 -12.4%
O=C(C1COc2ccccc2O1)N1CCN(c2nc3c(F)cccc3s2)CC1 (centres undefined) -11.6%
NS(=O)(=O)c1cc(C2(O)NC(=O)c3ccccc32)ccc1Cl (centres undefined) -14.1%
COCCNC(=O)C1CCC(CNS(=O)(=O)c2ccc3c(c2)CC(C)N3C(C)=O)CC1 (centres undefined) -10.5%
CC(C)C(=O)Nc1nnc(S(=O)(=O)N2CCCCCC2)s1 1.7%
